SMILES strings stand for the structures. The list shows a part of the results.

The text below walks through data of the antibiotic and cytotoxicity screens of Wong et al. (2023).

One assay concerns HSkMC. Briefly: cytotoxicity call (relative viability < 0.9). The following applies: 10 µM.
In a further assay the test system is HepG2. The assay can be described thus: cytotoxicity call (relative viability < 0.9). Particulars: 10 µM.
The test system of a further assay is S. aureus RN4220. The assay can be described thus: growth inhibition call (relative growth <= 0.2). The following applies: 50 µM.

On to `CCN(CC)CCCn1c(/C=C/c2ccc(O)c(OC)c2)cc(/C=C/c2ccc(O)c(OC)c2)nc1=S`, for which the cytotoxicity call with HSkMC and in the assay on HepG2 was “inactive” each time. Besides, the growth inhibition call in the assay with S. aureus RN4220 is “inactive”.

Turning to `CCS(=O)(=O)N1C[C@]2(C1)CN([C@@H](CO)c1[nH]c3cc(ccc3c12)OC)C(=O)Nc1c(noc1C)C`, the cytotoxicity call in the assay with HSkMC and in the assay on HepG2 was “inactive” throughout. Besides, the growth inhibition call with S. aureus RN4220 was “inactive”.

For the molecule `C[C@@H]1CN([C@H](C)CO)C(=O)CCCn2nncc2CO[C@H]1CN(C)C(=O)Nc1ccc(N2CCN(C)CC2)cc1`, the cytotoxicity call in the assay on HSkMC and in the assay on HepG2 was “inactive” throughout. Moreover, in the assay on S. aureus RN4220, the growth inhibition call is “inactive”.

Turning to `C[C@@H]1CN([C@@H](C)CO)C(=O)c2cc(NC(=O)C3CCCCC3)ccc2O[C@@H](C)CCCCO[C@H]1CN(C)C(=O)Cc1ccccc1`, the cytotoxicity call with HSkMC and with HepG2 was “inactive” each time. The growth inhibition call in the assay on S. aureus RN4220 is “inactive”.

With `C[C@@H]1CN([C@@H](C)CO)C(=O)c2cc(NC(=O)Cc3ccccc3)ccc2O[C@@H](C)CCCCO[C@@H]1CN(C)C(=O)CCC(F)(F)F`, the cytotoxicity call in the assay on HSkMC and in the assay on HepG2 was “inactive” each time. Further, the growth inhibition call with S. aureus RN4220 is “inactive”.

Take `CCCCCOC(=O)Nc1nc(=O)n(C2OC(C)C(O)C2O)cc1F` (stereo not given): the cytotoxicity call in the assay on HSkMC and in the assay on HepG2 was “inactive” each time. The growth inhibition call with S. aureus RN4220 was “inactive”.

For `COc1ccc(NC(=O)Nc2ccc3c(c2)C(=O)N([C@@H](C)CO)C[C@@H](C)[C@H](CN(C)C(=O)C2CCCCC2)OCCCC[C@H](C)O3)cc1`, the cytotoxicity call with HSkMC and in the assay with HepG2 was “inactive” each time. Also, in the assay on S. aureus RN4220, the growth inhibition call is “inactive”.

Consider `C[C@@H]1CN([C@H](C)CO)C(=O)c2cc(NC(=O)Nc3ccccc3)ccc2O[C@H]1CN(C)S(=O)(=O)c1cn(C)cn1`, for which the cytotoxicity call in the assay with HSkMC is “inactive”. Further, the cytotoxicity call with HepG2 is “active”. For the same molecule, the growth inhibition call in the assay with S. aureus RN4220 was “inactive”.

Turning to `CC(C)C#Cc1ccc2c(c1)O[C@@H](CN(C)S(=O)(=O)c1cn(C)cn1)[C@@H](C)CN([C@@H](C)CO)S2(=O)=O`, the cytotoxicity call in the assay with HSkMC and with HepG2 was “inactive” throughout. Also, in the assay with S. aureus RN4220, the growth inhibition call is “inactive”.

With `Cc1ccc(S(=O)(=O)N(C)C[C@@H]2Oc3ccc(NS(=O)(=O)c4cccs4)cc3CC(=O)N([C@@H](C)CO)C[C@@H]2C)cc1`, the cytotoxicity call in the assay on HSkMC (human skeletal muscle cells) and in the assay with HepG2 was “inactive” each time. In the assay on S. aureus RN4220, the growth inhibition call is “inactive”.
